Measured values: the supplement of paper PMC12645437, “Orthogonal IMiD-Degron Pairs Induce Selective Protein Degradation in Cells” (ACS Chemical Biology, 2025)
The other results are listed elsewhere or left out.

B1: Q9UKT9 (peptide)
chain: FVCPICGRPFTQKGNLLRHIKL
B2: Q9UKT9 (peptide)
chain: FACEICGAWFTQKGNLLRHIKL
B3: Q9UKT9 (peptide)
chain: FLCPQCGAVFTQKGNLLRHIKL
B4: Q9UKT9 (peptide)
chain: LGCEICGFGCTQKGNLLRHIKL
B5: Q9UKT9 (peptide)
chain: FHCPICGRNFTQKGNLLRHIKL
B6: Q9UKT9 (peptide)
chain: FRCDICGAWFTQKGNLLRHIKL
B7: Q9UKT9 (peptide)
chain: FCCSVCGHNFTQKGNLLRHIKL
B8: Q9UKT9 (peptide)
chain: FMCDQCGAQFTQKGNLLRHIKL
B9: Q9UKT9 (peptide)
chain: FYCPICGHMFTQKGNLLRHIKL
B10: Q9UKT9 (peptide)
chain: FTCDQCGAYFTQKGNLLRHIKL
B11: Q9UKT9 (peptide)
chain: FTCDICGAAFTQKGNLLRHIKL
B12: Q9UKT9 (peptide)
chain: FFCPICGRYFTQKGNLLRHIKL
B13: Q9UKT9 (peptide)
chain: FICEQCGAMFTQKGNLLRHIKL
B14: Q9UKT9 (peptide)
chain: FTCPQCGAGFTQKGNLLRHIKL
B15: Q9UKT9 (peptide)
chain: FWCDICGAVFTQKGNLLRHIKL
B16: Q9UKT9 (peptide)
chain: FCCNQCGHCFTQKGNLLRHIKL
B17: Q9UKT9 (peptide)
chain: FDCEICGAFFTQKGNLLRHIKL
B18: Q9UKT9 (peptide)
chain: FWCEICGANFTQKGNLLRHIKL
B19: Q9UKT9 (peptide)
chain: FWCNVCGAMFTQKGNLLRHIKL
B20: Q9UKT9 (peptide)
chain: FWCPICGRDFTQKGNLLRHIKL
B21: Q9UKT9 (peptide)
chain: FYCEQCGAYFTQKGNLLRHIKL
B22: Q9UKT9 (peptide)
chain: FWCNQCGAYFTQKGNLLRHIKL
B23: Q9UKT9 (peptide)
chain: FSCPICGAHFTQKGNLLRHIKL
B24: Q9UKT9 (peptide)
chain: FQCEICGHSFTQKGNLLRHIKL
B25: Q9UKT9 (peptide)
chain: FCCPICGHVFTQKGNLLRHIKL
B26: Q9UKT9 (peptide)
chain: FECPICGAWFTQKGNLLRHIKL
B27: Q9UKT9 (peptide)
chain: FECPICGASFTQKGNLLRHIKL
B28: Q9UKT9 (peptide)
chain: LDCPICGFFCTQKGNLLRHIKL
B29: Q9UKT9 (peptide)
chain: FLCDICGAEFTQKGNLLRHIKL
B30: Q9UKT9 (peptide)
chain: FWCEQCGAKFTQKGNLLRHIKL
B31: Q9UKT9 (peptide)
chain: FGCSVCGHDFTQKGNLLRHIKL
B32: Q9UKT9 (peptide)
chain: LYCEICGFICTQKGNLLRHIKL
B33: Q9UKT9 (peptide)
chain: FDCPICGASFTQKGNLLRHIKL
B34: Q9UKT9 (peptide)
chain: LNCEICGFKCTQKGNLLRHIKL
B35: Q9UKT9 (peptide)
chain: FTCDQCGAWFTQKGNLLRHIKL
B36: Q9UKT9 (peptide)
chain: FFCPICGHTFTQKGNLLRHIKL
B37: Q9UKT9 (peptide)
chain: FLCNQCGAFFTQKGNLLRHIKL
B38: Q9UKT9 (peptide)
chain: FYCNVCGAGFTQKGNLLRHIKL
B39: Q9UKT9 (peptide)
chain: FICPICGAEFTQKGNLLRHIKL
B40: Q9UKT9 (peptide)
chain: FQCPVCGAWFTQKGNLLRHIKL
B41: Q9UKT9 (peptide)
chain: FQCPQCGANFTQKGNLLRHIKL
B42: Q9UKT9 (peptide)
chain: FACPICGHGFTQKGNLLRHIKL
B43: Q9UKT9 (peptide)
chain: FFCDVCGAIFTQKGNLLRHIKL
B44: Q9UKT9 (peptide)
chain: LYCEICGFDCTQKGNLLRHIKL
B45: Q9UKT9 (peptide)
chain: LECEICGFYCTQKGNLLRHIKL
B46: Q9UKT9 (peptide)
chain: FRCPVCGAGFTQKGNLLRHIKL
B47: Q9UKT9 (peptide)
chain: FGCPVCGATFTQKGNLLRHIKL
B48: Q9UKT9 (peptide)
chain: FGCEVCGASFTQKGNLLRHIKL
B49: Q9UKT9 (peptide)
chain: LFCPICGFECTQKGNLLRHIKL
B50: Q9UKT9 (peptide)
chain: FKCPVCGAGFTQKGNLLRHIKL

Each sequence was assayed against no compound (DMSO) (assay: log2 fold change of degron read counts, EGFP-low vs EGFP+ sorted cells; higher = lower degron-EGFP level without compound (poor expression or instability)). Conditions: compound: DMSO control; 18 h.
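Further: jurkat cells carrying a lentiviral library of mutant zinc finger degrons fused to EGFP plus mCherry, mCherry+ cells FACS sorted, degron abundance counted by next-generation sequencing.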

Row | Sequence | log2 fold change of degron read counts
1 | B1 | -1.47
2 | B2 | -0.346
3 | B3 | 0.0566
4 | B4 | 0.38
5 | B5 | -0.878
6 | B6 | -0.943
7 | B7 | -0.544
8 | B8 | -0.708
9 | B9 | 0.149
10 | B10 | -0.555
11 | B11 | -0.544
12 | B12 | 0.0171
13 | B13 | -1.45
14 | B14 | -0.586
15 | B15 | -0.0432
16 | B16 | 0.0232
17 | B17 | -0.244
18 | B18 | -1.27
19 | B19 | 0.587
20 | B20 | 0.518
21 | B21 | -0.631
22 | B22 | 1.03
23 | B23 | 0.39
24 | B24 | -2.08
25 | B25 | 0.439

Row | Sequence | log2 fold change of degron read counts
26 | B26 | -0.164
27 | B27 | -1.36
28 | B28 | 1.91
29 | B29 | -2.83
30 | B30 | -0.539
31 | B31 | 0.146
32 | B32 | 1.62
33 | B33 | -0.852
34 | B34 | -0.414
35 | B35 | -1.19
36 | B36 | -0.208
37 | B37 | 0.874
38 | B38 | -0.738
39 | B39 | -0.93
40 | B40 | 0.456
41 | B41 | -0.851
42 | B42 | -0.3
43 | B43 | 0.0146
44 | B44 | 0.286
45 | B45 | 0.782
46 | B46 | 0.0283
47 | B47 | 0.127
48 | B48 | -1.53
49 | B49 | 1.04
50 | B50 | -0.548
